# Assay results reported in publication PMC9911399, “Two distinct binding modes provide the RNA-binding protein RbFox with extraordinary sequence specificity”.
# Where a chain is given by its changes, count along the chain named. The list shows a part of the results.
# T1: RBFOX1 RRM RbFoxmut (Fox-RRM*) (Homo sapiens, UniProt Q9NWB1 109-208, R118D;E147R;N151S;E152T)
# T1 sequence: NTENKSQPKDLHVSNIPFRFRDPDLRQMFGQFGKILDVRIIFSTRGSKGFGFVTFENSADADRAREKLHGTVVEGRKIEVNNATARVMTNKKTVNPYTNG
# B1: UCACCAC (DNA:RNA)
# RNA: GGGAGACCGGAAUUCAGAUUGUCCUCACCACUUAAAUCCCGUCGUAGCCACCA
# DNA 1: CAATCTGAATTCCGGTCTCCC
# DNA 2: TGGTGGCTACGACGGGATT
# B2: AGGUUUC (DNA:RNA)
# RNA: B1 RNA with U25A, C26G, A27G, C28U, C29U, A30U
# DNA 1: CAATCTGAATTCCGGTCTCCC
# DNA 2: TGGTGGCTACGACGGGATT
# B3: GGCGAGG (DNA:RNA)
# RNA: GGGAGACCGGAAUUCAGAUUGUCCGGCGAGGUUAAAUCCCGUCGUAGCCACCA
# DNA 1: CAATCTGAATTCCGGTCTCCC
# DNA 2: TGGTGGCTACGACGGGATT
# B4: UACGGCG (DNA:RNA)
# RNA: B3 RNA with G25U, G26A, A29G, G30C
# DNA 1: CAATCTGAATTCCGGTCTCCC
# DNA 2: TGGTGGCTACGACGGGATT
# B5: GCAUUCC (DNA:RNA)
# RNA: B1 RNA with U25G, C28U, C29U, A30C
# DNA 1: CAATCTGAATTCCGGTCTCCC
# DNA 2: TGGTGGCTACGACGGGATT
# B6: GCAUGAC (DNA:RNA)
# RNA: B1 RNA with U25G, C28U, C29G
# DNA 1: CAATCTGAATTCCGGTCTCCC
# DNA 2: TGGTGGCTACGACGGGATT
# B7: AAGGAGA (DNA:RNA)
# RNA: B3 RNA with G25A, G26A, C27G, G31A
# DNA 1: CAATCTGAATTCCGGTCTCCC
# DNA 2: TGGTGGCTACGACGGGATT
# B8: GGUGGGU (DNA:RNA)
# RNA: B3 RNA with C27U, A29G, G31U
# DNA 1: CAATCTGAATTCCGGTCTCCC
# DNA 2: TGGTGGCTACGACGGGATT
# B9: GCUUGGC (DNA:RNA)
# RNA: B3 RNA with G26C, C27U, G28U, A29G, G31C
# DNA 1: CAATCTGAATTCCGGTCTCCC
# DNA 2: TGGTGGCTACGACGGGATT
# B10: UGUCAAA (DNA:RNA)
# RNA: B1 RNA with C26G, A27U, C29A, C31A
# DNA 1: CAATCTGAATTCCGGTCTCCC
# DNA 2: TGGTGGCTACGACGGGATT
# B11: CAGGUUA (DNA:RNA)
# RNA: B3 RNA with G25C, G26A, C27G, A29U, G30U, G31A
# DNA 1: CAATCTGAATTCCGGTCTCCC
# DNA 2: TGGTGGCTACGACGGGATT
# B12: ACACCUA (DNA:RNA)
# RNA: B1 RNA with U25A, A30U, C31A
# DNA 1: CAATCTGAATTCCGGTCTCCC
# DNA 2: TGGTGGCTACGACGGGATT
# B13: CGUACUC (DNA:RNA)
# RNA: B1 RNA with U25C, C26G, A27U, C28A, A30U
# DNA 1: CAATCTGAATTCCGGTCTCCC
# DNA 2: TGGTGGCTACGACGGGATT
# B14: UGUUAAU (DNA:RNA)
# RNA: B3 RNA with G25U, C27U, G28U, G30A, G31U
# DNA 1: CAATCTGAATTCCGGTCTCCC
# DNA 2: TGGTGGCTACGACGGGATT
# B15: CGAAGGG (DNA:RNA)
# RNA: B3 RNA with G25C, C27A, G28A, A29G
# DNA 1: CAATCTGAATTCCGGTCTCCC
# DNA 2: TGGTGGCTACGACGGGATT
# B16: GGACCUC (DNA:RNA)
# RNA: B1 RNA with U25G, C26G, A30U
# DNA 1: CAATCTGAATTCCGGTCTCCC
# DNA 2: TGGTGGCTACGACGGGATT
# B17: AUUACAG (DNA:RNA)
# RNA: B1 RNA with U25A, C26U, A27U, C28A, C31G
# DNA 1: CAATCTGAATTCCGGTCTCCC
# DNA 2: TGGTGGCTACGACGGGATT
# B18: CCCUUAC (DNA:RNA)
# RNA: B1 RNA with U25C, A27C, C28U, C29U
# DNA 1: CAATCTGAATTCCGGTCTCCC
# DNA 2: TGGTGGCTACGACGGGATT
# B19: CCCAUGA (DNA:RNA)
# RNA: B3 RNA with G25C, G26C, G28A, A29U, G31A
# DNA 1: CAATCTGAATTCCGGTCTCCC
# DNA 2: TGGTGGCTACGACGGGATT
# B20: CUGCCGC (DNA:RNA)
# RNA: B1 RNA with U25C, C26U, A27G, A30G
# DNA 1: CAATCTGAATTCCGGTCTCCC
# DNA 2: TGGTGGCTACGACGGGATT
# Molecular target: T1, RBFOX1 RRM RbFoxmut (Fox-RRM*)
# Test: EMSA; HiTS-Eq, 1 nM pool, 10 min; buffer printed only for the single-RNA assays: 10 mM Tris pH 7.5, 150 mM NaCl, 3.4 mM EDTA, 0.001% NP-40, 30 C
# Conditions: tags: His6 N-terminal (pET28a); label: 5' 32P
# Summary of the method: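 A pool of RNA with 7 randomized nucleotides, 5′-radiolabelled and with DNA-annealed flanks, was equilibrated at 1 nM for 10 min in 50 µL with purified RbFox RRM, wild type or mutant, across increasing protein concentrations. Free RNA was separated by 8% native PAGE, excised, reverse-transcribed, barcoded by PCR and sequenced. Relative association constants were obtained from read-count changes of each RNA species versus the control reaction and normalised to the cognate motif.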
row,Binder,binding signal
1,B1,0.0709 KA relative to UGCAUGU
2,B2,0.136 KA relative to UGCAUGU
3,B3,0.0853 KA relative to UGCAUGU
4,B4,0.0842 KA relative to UGCAUGU
5,B5,0.0531 KA relative to UGCAUGU
6,B6,0.603 KA relative to UGCAUGU
7,B7,0.0757 KA relative to UGCAUGU
8,B8,0.0962 KA relative to UGCAUGU
9,B9,0.185 KA relative to UGCAUGU
10,B10,0.0676 KA relative to UGCAUGU
11,B11,0.132 KA relative to UGCAUGU
12,B12,0.131 KA relative to UGCAUGU
13,B13,0.0656 KA relative to UGCAUGU
14,B14,0.0817 KA relative to UGCAUGU
15,B15,0.0619 KA relative to UGCAUGU
16,B16,0.0679 KA relative to UGCAUGU
17,B17,0.0954 KA relative to UGCAUGU
18,B18,0.107 KA relative to UGCAUGU
19,B19,0.0942 KA relative to UGCAUGU
20,B20,0.116 KA relative to UGCAUGU
